Experimental data: publication PMC4336329 (PLoS ONE, 2015)
The whole screen tested about 310,000 compounds, of which about 14,000 (4.5%) showed an effect of 50% or more. The effect is printed as a negative number. The list shows a part of the results.

Target: human ether-à-go-go-related gene (hERG) potassium channel (human, UniProt Q12809)
Assay: primary screen, population patch clamp on CHO cells stably expressing hERG
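Note: peak tail current of the secondary pulse compared with the same well before compound.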

Chain of human ether-à-go-go-related gene (hERG) potassium channel (Q12809 whole entry, looked up): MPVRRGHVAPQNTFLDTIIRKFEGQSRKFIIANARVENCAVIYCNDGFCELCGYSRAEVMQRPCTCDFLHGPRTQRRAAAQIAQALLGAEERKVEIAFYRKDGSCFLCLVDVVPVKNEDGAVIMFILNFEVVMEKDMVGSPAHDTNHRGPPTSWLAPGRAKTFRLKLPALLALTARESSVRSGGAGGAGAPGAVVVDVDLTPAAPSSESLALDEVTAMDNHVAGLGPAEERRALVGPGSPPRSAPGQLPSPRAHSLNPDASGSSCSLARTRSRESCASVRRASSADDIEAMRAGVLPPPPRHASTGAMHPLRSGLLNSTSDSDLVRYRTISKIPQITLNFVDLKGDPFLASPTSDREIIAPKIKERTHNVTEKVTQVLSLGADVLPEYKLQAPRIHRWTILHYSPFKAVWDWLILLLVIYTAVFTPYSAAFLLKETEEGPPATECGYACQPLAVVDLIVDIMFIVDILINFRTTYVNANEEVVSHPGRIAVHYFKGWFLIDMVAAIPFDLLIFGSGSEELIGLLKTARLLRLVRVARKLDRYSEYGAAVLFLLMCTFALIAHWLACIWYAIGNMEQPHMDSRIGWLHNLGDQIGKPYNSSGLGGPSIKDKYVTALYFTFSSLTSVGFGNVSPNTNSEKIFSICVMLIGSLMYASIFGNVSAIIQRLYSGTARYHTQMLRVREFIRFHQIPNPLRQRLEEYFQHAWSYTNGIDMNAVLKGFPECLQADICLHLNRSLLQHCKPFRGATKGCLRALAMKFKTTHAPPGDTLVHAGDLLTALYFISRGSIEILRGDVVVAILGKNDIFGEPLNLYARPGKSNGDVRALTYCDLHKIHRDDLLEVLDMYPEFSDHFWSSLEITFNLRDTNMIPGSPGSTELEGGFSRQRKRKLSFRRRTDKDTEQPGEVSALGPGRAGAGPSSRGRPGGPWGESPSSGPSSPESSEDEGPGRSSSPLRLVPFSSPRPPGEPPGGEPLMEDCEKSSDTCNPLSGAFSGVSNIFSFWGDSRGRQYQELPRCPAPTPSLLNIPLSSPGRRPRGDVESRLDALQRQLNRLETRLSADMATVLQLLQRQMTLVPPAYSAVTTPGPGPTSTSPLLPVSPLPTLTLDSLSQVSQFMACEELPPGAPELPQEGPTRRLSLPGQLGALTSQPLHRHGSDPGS

| SMILES | hERG current change (%, negative = inhibition) at 10uM [%] |
| --- | --- |
| CC(=O)Nc1ccccc1O | 14.3 |
| N#C/C(=C/N1CCOCC1)c1ccccc1 | -13.6 |
| COc1cc(OC)c(OC)cc1CNCCc1ccc(F)cc1.O=C(O)C(=O)O | -11 |
| COc1cccc(CNC(=S)Nc2cc(OC)ccc2OC)c1 | 12.5 |
| Cc1ccccc1CN1CCN(C(C)C(=O)NNC(=O)c2ccc(F)cc2)CC1 (centres unmarked) | -8.62 |
| Cc1cccc(/N=C2/NC(=O)C(Cc3ccccc3)S2)n1 (centres unmarked) | -0.746 |
| CCN(CC)C(=O)CSc1nnc(-c2c[nH]c3ccccc23)o1 | 11.1 |
| COc1ccc(NS(=O)(=O)c2ccc(C)c(C(=O)N(C)Cc3ccc(OC)cc3OC)c2)cc1 | -39.6 |
| CCOC(=O)c1ccccc1NC(=O)c1cc2sccc2n1C | 6.08 |
| O=c1c2[nH]c3ccccc3c2ncn1CCN1CCCCC1 | -45.6 |
| CC(=O)Nc1ccc(N2C(=O)CSC2c2ccc([N+](=O)[O-])cc2)cc1 (centres unmarked) | -11.3 |
| CCN(CC(=O)Nc1c(F)cccc1F)C(=O)c1cn2ccccc2n1 | 29 |
| N#C/C(=C/c1cn[nH]c1-c1cccc(Br)c1)C(=O)O | 1.8 |
| CCOCCCNC(=O)C1c2ccccc2Oc2ccccc21 | 15.4 |
| CC1CCCCC1NC(=O)Cn1cnc2ccccc2c1=O (centres unmarked) | 3.88 |
| O=C(Cc1ccc(Br)cc1)N1CCN(c2ccc(F)cc2)CC1 | -49.9 |
| Cc1ccc(/C=N/NC(=S)Nc2cccc(S(=O)(=O)N(C)C)c2)o1 | -11.5 |
| C=CCn1ccc(O)c(Cc2ccc(Cl)cc2)c1=O | -1.67 |
| CC(O)(CS(=O)(=O)c1cccc(C(F)(F)F)c1)C(=O)Nc1ccc(C(F)(F)F)cc1 (centres unmarked) | -13 |
| Cc1noc(C)c1S(=O)(=O)N1CCCC(C(=O)NCC2CCCO2)C1 (centres unmarked) | 5.12 |
| COc1ccc2c(c1)SCCC2=O | 4.79 |
| O=C(CNC(=O)c1cccs1)NCCN1CCN(Cc2ccccc2)CC1 | -37.3 |
| O=C(O)C(O)(c1ccccc1)C(O)c1ccccc1 (centres unmarked) | 9.72 |

| SMILES | hERG current change (%, negative = inhibition) at 10uM [%] |
| --- | --- |
| c1ccc(C[C@H]2CNCCN2CCCCC2CCCCC2)cc1 | -19.7 |
| Cc1nn(-c2ccccc2)c(C)c1/C=N/N1CCN(c2ccccc2)CC1 | -13.6 |
| CN1CCN(C(=O)CSc2ccc(Cl)cc2)CC1 | 6.35 |
| CCOc1ccc(NC(=O)CCNS(=O)(=O)c2ccc3c(c2)CCC(=O)N3)cc1 | -2.29 |
| N#CC1=C(N)N(c2ccccc2Sc2ccccc2)C(=O)C1 | 3.4 |
| COC(=O)C1=C(C)NC(=S)NC1c1ccco1 (centres unmarked) | 15.9 |
| Cc1ccc(S(=O)(=O)CCSc2cccc(C(=O)Nc3ccccc3C(=O)O)c2)cc1 | -30.3 |
| CCOC(=O)/C=C/c1ccc2oc3ccccc3c(=O)c2c1 | 20.5 |
| O=C(CCCc1nc(-c2ccccc2)no1)NC1CCCCC1 | 8.31 |
| Cc1ccc(Cn2c(=O)c3cccnc3n(CC(=O)Nc3cccc(C(F)(F)F)c3)c2=O)cc1 | 3.19 |
| O=C(CCNS(=O)(=O)c1ccc(Br)cc1)NC1CCCCC1 | 4.82 |
| CCN(C(=O)CN1C=NS(=O)(=O)c2ccccc21)c1ccccc1 | 4 |
| CN(O)/C=C/C(=O)c1ccc(Br)cc1 | -12.9 |
| O=C(CNS(=O)(=O)c1ccc(C(=O)N2CCCCC2)cc1)N1CCCCC1 | 17.8 |
| NC(=O)c1ccccc1Br | -9.19 |
| CCN(CC)c1ccc(N2C(=O)/C(=C/c3cccnc3)SC2=S)cc1 | 12.6 |
| Cc1cccc(N/N=C(\C=N\N)C(=O)c2ccc(Br)cc2)c1 | 16.8 |
| CCCOc1ccc2[nH]c(C(=O)N/N=C/c3cc(OC)c(OC)c(OC)c3)cc2c1 | 19 |
| Cn1ccnc1SCC(=O)Nc1ccc(F)c([N+](=O)[O-])c1 | 12.6 |
| COC(=O)C1=C(C)Nc2nc(SCc3ccccc3)[nH]c(=O)c2C1c1cccs1 (centres unmarked) | 7.28 |
| CCC(C)C(=O)Nc1nc2ccc(OC)cc2s1 (centres unmarked) | -16.9 |
| O=C(OCC(=O)N1CCCC1=O)C1CCN(S(=O)(=O)c2c(Cl)cccc2Cl)CC1 | -36.1 |
| O=C(c1cnn(-c2ccc(Cl)cc2)c1)c1ccccc1O | -26.4 |

| SMILES | hERG current change (%, negative = inhibition) at 10uM [%] |
| --- | --- |
| COc1ccccc1-n1nc(C(=O)NCc2ccco2)c2ccccc2c1=O | 0.396 |
| Cc1cc[n+](CC(=O)Nc2cc(C(F)(F)F)ccc2Cl)cc1.[Cl-] | -2.23 |
| CCN(Cc1ccccc1)S(=O)(=O)c1cc(C(=O)O)ccc1OC | 14.1 |
| S=C(NCc1ccccc1)Nc1cccc2ccccc12 | -5.84 |
| O=[N+]([O-])c1cc(-c2nc3nc4ccccc4nc3n2CCc2ccccc2)cc([N+](=O)[O-])c1 | 3.97 |
| COC(=O)C1=C(c2cc3ccccc3s2)C[C@@H]2CC[C@H]1N2C(=O)NCCCOC(C)C | -15.4 |
| O=Cc1c(NCc2ccco2)nc2ccccn2c1=O | -6.73 |
| CC/C(=N/Nc1cccc(Cl)c1)c1cnnc(SC)n1 | 24 |
| CNS(=O)(=O)c1ccc(NCC2COc3ccccc3O2)c([N+](=O)[O-])c1 (centres unmarked) | -26.8 |
| CCC(CC)C(=O)c1c[nH]c(C(=O)NCCOC)c1 | 54.4 |
| Cc1cc(C(=O)Cn2cncn2)c(C)n1CCc1ccc(F)cc1 | -19.8 |
| O=C(OCC(=O)N1CCCC1)c1ccc(O)cc1 | 8.67 |
| O=C(Nc1cccc(C(=O)N2CCOCC2)c1)c1cccnc1 | 16.8 |
| CCc1c(C(=O)N/N=C/c2cccs2)nnn1-c1nonc1N | 18 |
| CCOC(=O)Cc1csc(NC(=O)c2ccc(C)o2)n1 | 4.62 |
| CCN1CCN(S(=O)(=O)c2ccc(Cl)c(C(=O)NC3CCC(C)CC3)c2)CC1 (centres unmarked) | -2.34 |
| CN(Cc1ccccc1)C(=O)c1cc(-c2ccc(Br)cc2)on1 | -0.817 |
| CC(Sc1nnc(-c2ccc(O)cc2)o1)C(=O)Nc1cccc2ccccc12 (centres unmarked) | -13.1 |
| CCCn1c(SCC(=O)Nc2c(C)cccc2C)nnc1C(C)C | -1.47 |
| CC(=O)Nc1cc2c(cc1NC(=O)Cn1nc(-c3ccccc3F)ccc1=O)OCCO2 | 2.13 |
| CC(=O)Nc1cccc(-n2nnc(SCC(=O)Nc3ccc(F)c(Cl)c3)n2)c1 | 14.9 |
| O=C1c2ccccc2OCOc2ccccc21 | -8.28 |
| COc1ccccc1CNC(=O)CSC(=S)N1CCCC1 | -5.54 |

| SMILES | hERG current change (%, negative = inhibition) at 10uM [%] |
| --- | --- |
| C=CCc1cccc2cc(C(=O)NCc3ccc(C(=O)OCC)o3)c(=O)oc12 | 1.21 |
| O=C(NC1CC1)c1cc(=O)c2ccccc2o1 | -6.9 |
| CCOc1cccc(NC(=O)c2ccc(S(=O)(=O)N(C)C)cc2)c1 | -3.89 |
| Cc1cc(C)cc(NC(=O)CN2CCC(NC(=O)c3cccc(F)c3)CC2)c1 | -39 |
| Nc1ncnc2nc(SCCC(=O)O)[nH]c12 | 5.77 |
| CCCCn1c(N)c(N(CCOC)C(=O)c2cnccn2)c(=O)[nH]c1=O | 10.7 |
| Nc1c(C(=O)Nc2ccc(S(=O)(=O)N3CCCC3)cc2)sc2nc3ccc(OC(F)(F)F)cc3cc12 | 3.56 |
| COc1ccccc1NS(=O)(=O)c1ccc(O)c(C(=O)OCC(=O)N2CCc3ccccc32)c1 | -7.99 |
| Cc1cc(C(=O)COC(=O)C2=COCCO2)c(C)n1-c1ccc2c(c1)OCO2 | -11.2 |
| COc1ccc(C(=O)NC(=S)NNC(=O)CNC(=O)C2CCCCC2)cc1 | 18.3 |
| CCCc1c(C(=O)N/N=C/c2cccs2)nnn1-c1nonc1N | 5.75 |
| COc1ccc(C2CC(c3ccc(F)cc3)n3nc(NS(C)(=O)=O)nc3N2)cc1 (centres unmarked) | 8.06 |
| Cl.O=C(NN1CCN(Cc2ccccc2)CC1)c1ccc(Cl)cc1 | -40.4 |
| O=S(=O)(Nc1ccc(F)cc1)c1ccc(NS(=O)(=O)c2cccs2)cc1 | -0.231 |
| Cc1onc(-c2c(Cl)cccc2Cl)c1C(=O)N1CCCCC1 | 12.8 |
| CCC(O)CC(C(=O)NNc1ccccc1)C(=O)NNc1ccccc1 (centres unmarked) | 8.98 |
| O=C(CSc1nc(-c2ccco2)cc(C(F)(F)F)n1)N1CCCc2ccccc21 | 2.57 |
| Cc1sc(NC(=O)CCC(=O)O)c(C#N)c1C | 20.1 |
| CCc1ncc(C)[nH]1 | 7.87 |
| COc1ccc(CC(=O)c2ccc(O)cc2O)cc1 | -3.19 |
| CCOc1ccc(OCc2cccc(C(=O)N3CCCCCC3)c2)cc1 | -69.3 |
| CC(=O)c1ccc(N2CCN(S(=O)(=O)c3ccc4c(c3)CC(C)N4C(=O)C3CC3)CC2)cc1 (centres unmarked) | 24.1 |
| O=C(N/N=C/c1ccc(-c2cccc([N+](=O)[O-])c2)o1)c1ccc([N+](=O)[O-])cc1 | -40 |
